Here are results for 93 compounds from PubChem BioAssay AID1159614 (National Center for Advancing Translational Sciences (NCATS), 2016).

Among all 45,000 compounds or so, about 65 (0.1%) were called active. Calls follow the shape of the dose curve; as a rule, active = well fitted activation curve with a large enough effect; inconclusive = small, poorly fitted or top-dose-only effect; inactive = no such curve, though single readings can be large or run the other way. This is one part of the list.

The target of this assay is Galactocerebrosidase (Homo sapiens) (UniProt P54803). Kind of assay: A Novel Cell-Based Assay to Identify Small Molecules for B -Galactocerebrosidase. Also: 0% is about no effect; nearly all actives have a fitted effect of over 65% in size. The following applies: 145M-Twi-hGALC-G270D cells (Twitcher mouse brain line with human GALC G270D), HMU-beta-Gal fluorescence, 48 h; series mostly up to 57.5 µM; activation: at the top concentration. In a few lines: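 Fluorogenic HMU-b-Gal hydrolysis (0.1 mM final, pH 5.2 citrate-phosphate with 1 mg/mL sodium taurocholate; carbonate stop buffer) measures mutant GALC activity after compound treatment of live 145M-Twi Twitcher brain cells stably carrying human GALC-G270D, with wild-type GALC line alongside; activation sought.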
UniProt P54803, sequence (P54803 whole entry, looked up): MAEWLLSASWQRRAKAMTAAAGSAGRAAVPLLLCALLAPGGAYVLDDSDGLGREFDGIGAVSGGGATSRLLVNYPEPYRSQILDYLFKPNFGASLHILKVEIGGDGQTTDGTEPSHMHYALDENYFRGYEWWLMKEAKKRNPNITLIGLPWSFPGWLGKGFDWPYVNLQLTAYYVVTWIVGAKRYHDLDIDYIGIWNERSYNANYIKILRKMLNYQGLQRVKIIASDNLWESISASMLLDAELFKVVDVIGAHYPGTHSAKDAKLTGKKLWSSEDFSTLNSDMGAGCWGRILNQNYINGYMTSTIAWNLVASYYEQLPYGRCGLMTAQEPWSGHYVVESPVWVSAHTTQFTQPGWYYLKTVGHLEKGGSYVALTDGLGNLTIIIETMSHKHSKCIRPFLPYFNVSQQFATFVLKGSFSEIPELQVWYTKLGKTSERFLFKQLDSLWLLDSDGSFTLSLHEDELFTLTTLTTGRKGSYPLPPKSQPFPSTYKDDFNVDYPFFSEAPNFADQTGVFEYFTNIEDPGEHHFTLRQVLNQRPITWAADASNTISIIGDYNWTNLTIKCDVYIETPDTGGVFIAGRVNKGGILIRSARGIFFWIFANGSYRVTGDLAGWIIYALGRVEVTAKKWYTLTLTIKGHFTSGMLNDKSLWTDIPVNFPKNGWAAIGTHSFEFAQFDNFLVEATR
Regarding `Oc1ccc(Cl)c2cccnc12`, the “activation” value is inactive: -10%. Then `CCOc1ccc(NC(=O)CSc2nccn2-c2cccc(C)c2C)cc1`, with inactive: -0.735%; and `Cc1ccc(Cl)cc1N1CCN(C(=O)C2CCCN(S(=O)(=O)c3ccc(Br)s3)C2)CC1` (stereo not drawn), with inactive: -13.3%; and `COc1ccccc1NC(=O)CCn1cnc2ccccc2c1=O`, with inactive: -17.7%. The value for `O=S(=O)(NCC(c1ccco1)S(=O)(=O)c1cccs1)c1ccc(F)c(C(F)(F)F)c1` (stereo not drawn) was inactive: -17.6%; that for `CCOC(=O)C1CCN(S(=O)(=O)c2cc(-c3onc(C)c3C)ccc2OC)CC1` was inactive: -9.63%; that for `Cc1ccc(OCC(=O)NCC(=O)OCc2cc(=O)n3nc(C)sc3n2)cc1` was inactive: -19.4%. Then `CCCCn1c2ccc(F)cc2c2nnc(SCCN3CCCCC3)nc21`, with inactive: -8.09%. Consider `COc1ccc(CNC(=O)c2ccc3c(c2)N(Cc2cccc(Cl)c2)C(=O)c2ccccc2S3)c(OC)c1`, for which the “activation” value is inactive: -8.28%.

For the compound `CC(C)c1ccc(NC(=O)CSC2=Nc3ccccc3C3=NC(CC(=O)NCc4ccc(F)cc4)C(=O)N23)cc1` (stereo not drawn), the “activation” value was inactive: -16.2%.

Regarding `CCc1ccccc1NC(=O)Cn1c(=O)c2cccn2c2ccc(F)cc21`, the “activation” value was inactive: -8.99%. Take `COc1ccc(CCNC(=O)CSc2ncc3c(n2)-c2cc(Cl)ccc2N(Cc2ccccc2)S3(=O)=O)cc1OC`: the “activation” value is inactive: 4.62%.

On to `Cc1ccc(CNC(=O)c2nc(SCc3ccc(C)cc3)ncc2Cl)cc1`, for which the “activation” value is inactive: -14.3%. In the case of `Cc1cccn2c(Nc3ccccc3)c(-c3ccc(N4CCOCC4)cc3)nc12`, the “activation” value was inactive: -29.3%. The value for `Cc1ccc(-n2c(=O)c3cccnc3n2CC(=O)Nc2cccc(C)c2C)cc1` was inactive: -18.7%; that for `CC(C)c1ccc(OC(=O)c2cc(-c3ccc4c(c3)OCCO4)on2)cc1` was inactive: -10.7%; that for `COCCCNC(=O)CCn1c(=O)c2ccccc2n(CC(=O)Nc2c(C)cc(C)cc2C)c1=O` was inactive: 0.0892%.

Consider `COc1cccc2sc(N(Cc3cccnc3)C(=O)COc3ccccc3)nc12`, for which the “activation” value was inactive: -9.82%. Take `Cc1nn(-c2ccccc2)c(OC(=O)c2ccccc2F)c1S(=O)(=O)c1ccccc1`: the “activation” value was inactive: -7.64%.

With `CCOc1ccc(C(=O)Nc2nnc(SCc3cc(=O)c4cc(C)ccc4[nH]3)s2)cc1`, the “activation” value was inactive: -11.6%. Then `CCC(=O)c1ccc(O)cc1`, with inactive: -8.64%. The value for `CCn1c(=O)c2cc(C(=O)N3CCN(c4cccc(Cl)c4)CC3)sc2c2ccccc21` was inactive: -17.4%. For the compound `CCN(CC)S(=O)(=O)c1ccc2c(c1)nc(CN(C)C(=O)c1cccc(Cl)c1)n2C`, the “activation” value is inactive: -0.384%.

In the case of `COc1ccc(CCNC(=O)C2=C(C)C(=O)OC23CCCCC3)c(OC)c1OC`, the “activation” value is inactive: -8.88%. Then `CC1CCN(S(=O)(=O)c2ccc3c(c2)N(CC(=O)NCCCN2CCCCC2C)C(=O)CS3)CC1` (stereo not drawn), with inactive: -8.81%; and `COc1cccc(N2CCN(C(=O)c3cccc(NC(=O)c4nsc5ccccc45)c3)CC2)c1`, with inactive: -14%. `Cc1sc2c(c1C)c(=O)n(CCc1ccccc1)c(=O)n2Cc1ccccc1Cl`: the “activation” value was inactive: -10.9%.

As for `COc1cc(CN(C(=O)c2ccccc2[N+](=O)[O-])c2ccccn2)cc(OC)c1OC`, the “activation” value was inactive: 0.109%.

As to `Cc1ccc(C)c(NC(=O)CSc2nc(=O)n(CCN(C)C)c3c2CCC3)c1`, the “activation” value is inactive: -11%. The value for `CCc1ccccc1NC(=O)Nc1cc(C(=O)NCc2ccc(C(C)C)cc2)ccc1N1CCCC1` was inactive: -11.1%. For `Cc1cc(NC(=O)c2ccc3c(c2)N(Cc2cccc(Cl)c2)C(=O)c2ccccc2S3=O)ccc1Br` (stereo not drawn), the “activation” value is inactive: -2.12%. In the case of `CCc1ccc(NC(=O)CCS(=O)(=O)c2ccc3c(c2)CCN3C(C)=O)cc1`, the “activation” value is inactive: -0.835%. Then `CC1CCCN(Cc2c(O)ccc3c(=O)c(Oc4ccccc4Cl)c(C(F)(F)F)oc23)C1` (stereo not drawn), with inactive: -8.66%; and `Cc1ccc(S(=O)(=O)c2cn(Cc3ccccc3F)c3cc4c(cc3c2=O)OCO4)cc1`, with inactive: -3.71%; and `COc1ccc(OC)c(CNC(=O)C2CCN(S(=O)(=O)c3cn(C)cn3)CC2)c1`, with inactive: -14.7%. The value for `COc1cc(Cl)c(C)cc1NC(=O)c1cc(CN2CCOCC2)on1` was inactive: -14.3%; that for `CCC1CN(S(=O)(=O)c2cc(-c3cc(C)no3)ccc2OC)c2cc(C)ccc2O1` (stereo not drawn) was inactive: -3.47%; that for `COc1ccc(-c2ccc(CNc3ccc4[nH]c(=O)[nH]c4c3)o2)cc1Cl` was inactive: -1.13%. Then `Cn1cnnc1SCC(=O)Nc1cc(C(=O)O)cc(C(=O)O)c1`, with inactive: -14.3%; and `COc1ccc(NC(=O)c2sc3nc4c(cc3c2N)CN(C(C)C)CC4)c(OC)c1`, with inactive: -17.3%. `Cc1cccc(C(=O)NCC(c2ccc3c(c2)OCO3)N2CCN(c3ccccc3F)CC2)c1` (stereo not drawn): the “activation” value was inactive: -8.16%.

For the compound `COc1cc(-c2noc(CSc3nc(-c4ccccc4)cc(=O)[nH]3)n2)cc(OC)c1OC`, the “activation” value is inactive: -8.27%.

Consider `Cc1cc(=O)n2[nH]c(NCc3ccc(F)cc3)nc2n1`, for which the “activation” value is inactive: -2.41%. On to `Cc1ccc(-n2nc(C)c3c(C)cc(=O)n(CC(=O)Nc4ccc(Br)cc4F)c32)cc1`, for which the “activation” value is inactive: -5.15%. As to `COc1ccc(S(=O)(=O)c2c(Nc3ccc(C)cc3)sc(C(=O)c3ccc(C)cc3)c2N)cc1`, the “activation” value was inactive: -22.9%. Then `CCc1ccc(Oc2nc3c(C)cccn3c(=O)c2/C=C(\C#N)c2nc3ccccc3[nH]2)cc1`, with inactive: -19.9%; and `O=C(CCCn1c(=O)c2cccn2c2ccc(F)cc21)NCCc1ccccc1`, with inactive: 4.38%. Then `CCOC(=O)CSc1nc2ccc(NC(=O)c3ccc(F)cc3)cc2s1`, with inactive: 3.76%; and `Cc1ccc(Cl)cc1NC(=O)Nc1c(C)n(C)n(-c2ccccc2)c1=O`, with inactive: -9.85%.

As for `CCOC(=O)c1cccc(NC(=O)CCc2c(C)nc3cc(-c4ccc(Cl)cc4)nn3c2C)c1`, the “activation” value is inactive: -10.9%. Then `CCc1nnc(SCC(=O)N(C)c2ccccc2)c2cc3sccc3n12`, with inactive: -6.56%. On to `Cc1ccc(CSCC(=O)NCc2ccc(F)cc2)cc1`, for which the “activation” value is inactive: -7.66%. The value for `CCOc1ccccc1Nc1nc(-c2cccc(Cl)c2)c2c(n1)-c1ccccc1OC2` was inactive: -10.8%; that for `COc1ccc(NC(=O)Cn2cc(S(=O)(=O)c3ccc(C)cc3)c(=O)c3ccccc32)cc1OC` was inactive: -10.3%. The value for `COc1ccc(-c2noc(-c3ccc(NCc4ccco4)c([N+](=O)[O-])c3)n2)cc1` was inactive: -9.72%; that for `CCCn1c(=O)n(-c2cc(Cl)c(OC)cc2OC)c(=O)c2c3c(sc21)CN(C(C)=O)CC3` was inactive: -17.6%; that for `CC1=C(C(=O)Nc2cccnc2)C(c2cccc(O)c2)n2nc(SCc3ccccc3)nc2N1` (stereo not drawn) was inactive: 2.23%. The value for `Cc1ccc(Nc2nnc(-c3ccc(C)c(S(=O)(=O)N4CCN(C)CC4)c3)c3ccccc23)c(C)c1` was inactive: -8.67%; that for `Cc1ccc([C@H]2Nc3ccc(S(=O)(=O)Nc4cccc(Cl)c4C)cc3[C@H]3C=CC[C@H]32)cc1` was inactive: -7.42%.

As for `CCn1cc(CCC(=O)NCc2ccc(F)cc2)c2ccccc21`, the “activation” value is inactive: -8.16%. The value for `CCOc1ccc(C(=O)NCCc2csc(-c3ccc(C(F)(F)F)cc3)n2)cc1OCC` was inactive: -9.13%. The value for `COc1ccc(C(=O)N2CCC(c3nc4ccccc4o3)CC2)cc1` was inactive: 5.11%; that for `COc1ccc(OC)c(NC(=O)Cn2cnc3sc(C)c(S(=O)(=O)N4CCN(c5ccccc5OC)CC4)c3c2=O)c1` was inactive: -4.55%; that for `CCCN(C(=O)c1nn(-c2ccc(OC)c(Cl)c2)c(=O)c2c1c1ccccc1n2C)c1ccccc1F` was inactive: -16.6%. With `COc1ccc(NC(=O)c2ccc3c(=O)n4nc(Nc5cc(C)ccc5C)sc4nc3c2)cc1`, the “activation” value was inactive: -23.1%.

Consider `CCOc1ccccc1CNC(=O)C1CCN(C2=NS(=O)(=O)C(c3ccc(C)c(C)c3)=C2C)CC1`, for which the “activation” value was inactive: -12%.

As for `O=c1c2oc3ccccc3c2n(Cc2cccc(F)c2)c(=O)n1Cc1ccco1`, the “activation” value was inactive: -13.9%. The value for `CS(=O)(=O)CCNCc1ccc(-c2ccc3ncnc(Nc4ccc(OCc5cccc(F)c5)c(Cl)c4)c3c2)o1` was inactive: -23.3%. Then `COc1cccc(NC(=O)c2sc3nc(C)c(C(=O)Nc4ccc(C)cc4C)c(-c4sccc4C)c3c2N)c1`, with inactive: -14.3%; and `Cc1onc(-c2c(Cl)cccc2Cl)c1C(=O)Cl`, with inactive: -15.4%; and `CC(C)c1ccc2oc(-c3cc(NC(=O)c4cccs4)ccc3Cl)nc2c1`, with inactive: -7.45%.

Consider `COc1ccc(C(=O)Nc2cc(C(C)C)c(O)c(S(=O)(=O)c3ccc(OC)cc3)c2C)cc1`, for which the “activation” value was inactive: -9.53%. For `Cc1ccccc1N1CCN(S(=O)(=O)c2nnc(NC(=O)c3ccccc3)s2)CC1`, the “activation” value is inactive: -6.06%. Regarding `c1ccc(Cc2nnc(SCc3nc(-c4cccs4)no3)n2-c2ccccc2)cc1`, the “activation” value is inactive: -8.59%.

`COc1ccc(S(=O)(=O)c2c(Nc3ccc(F)cc3)sc(C(=O)c3ccc(C)cc3C)c2N)cc1`: the “activation” value was inactive: -16.7%.

For the compound `COc1ccccc1Cn1ccn(Cc2c(F)cccc2Cl)c(=O)c1=O`, the “activation” value is inactive: -5.51%. For `COC(=O)c1ccccc1NC(=O)CCC(=O)N1CCOc2ccccc21`, the “activation” value is inactive: -7.45%. Then `CCOC(=O)c1c(-c2ccccc2)csc1NC(=O)c1nc(S(=O)(=O)CC)ncc1Cl`, with inactive: -23.4%. Regarding `COc1ccc(C2=CC(c3ccccc3F)n3ncc(C(=O)Nc4ccc(C)cc4)c3N2)cc1` (stereo not drawn), the “activation” value was inactive: -11.6%. With `CCN(CC)C(=O)c1sc(NC(=O)C(C)Sc2nc(-c3ccccc3)cc(C(F)(F)F)n2)c(C(=O)OC)c1C` (stereo not drawn), the “activation” value was inactive: -7.73%. As to `CCC(=O)Nc1ccc(S(=O)(=O)NCc2ccc3c(c2)CCN3C(=O)c2ccc(C)cc2)cc1`, the “activation” value is inactive: -1.04%. For the compound `CCN(c1ccccc1)c1nnc(NC(=O)Nc2cccc(Cl)c2C)s1`, the “activation” value was inactive: -10.8%. Turning to `CC(=O)c1ccc(NC(=O)Nc2nnc(N3CCCC(C)C3)s2)cc1` (stereo not drawn), the “activation” value was inactive: -46.1%. The value for `CSc1ccc(-c2nc3ncccn3c2Nc2ccc(C)c(C)c2)cc1` was inactive: -9.91%; that for `Nc1cc(=O)nc(SCC(=O)Nc2cccc(Cl)c2)n1CCc1ccccc1` was inactive: -6.8%; that for `Cc1cccc(-c2c3c(=O)n(C)c(=O)n(C)c3cn2-c2cc(N)c(Cl)cc2Cl)c1` was inactive: -16.9%. Consider `CN(C)c1oc(/C=C/c2ccc(F)cc2)nc1C#N`, for which the “activation” value was inactive: -11.9%. In the case of `CCOCCCNC(=O)c1cc2c(-c3ccc(OC)c(OC)c3)nn(C)c2s1`, the “activation” value was inactive: -15.4%. With `COCCN1CCc2nc(SCC(=O)Nc3ccc(Br)cc3)[nH]c(=O)c2C1`, the “activation” value is inactive: -8.92%. The value for `Cc1c2cnn(CC(=O)NCc3ccc(F)cc3)c(=O)c2c(C)n1Cc1ccccc1F` was inactive: -11.9%; that for `CC(C)(C)OC(=O)N1CCC(c2c(C(=O)NCc3cccs3)cnn2-c2ccc(F)cc2F)CC1` was inactive: -28.1%; that for `COc1ccc(Cl)cc1Nc1ncnc2c1c(-c1ccccc1)cn2-c1ccccc1` was inactive: 14%. Then `Cc1noc(/C=C/N(C)C)c1S(=O)(=O)N1CCCC(C(=O)Nc2ccc(F)cc2F)C1` (stereo not drawn), with inactive: -11%.
